Source: PubChem BioAssay (NCI)
More than one record can exist for a structure, and the calls need not agree.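 Interpretation: 100, growth as untreated; towards 0, rising growth inhibition; 0, no net growth; 0 to -100, cell death. Compounds scoring below 10 were considered active.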 A number of entries come with more than one value. The other results are left out here. An entry can have further records. These are repeated runs of one drug, at the concentration stated with the values; one value stands for one run. Signs of the kind (2×) say how often a value occurs here.

Experiments:
Experiment in all cases: NCI-60 one-dose screen, 48 h (100 = growth as untreated, 0 = no growth, -100 = all killed)
HCT-116 colon = settings: 2.5 mM; runs of 2000
HCC-2998 colon = settings: 2.5 mM
KM12 colon = settings: 2.5 mM

**Q.** Which growth (HCT-116 colon) does the source give for `O=c1[nH]cc(F)c(=O)[nH]1` here?
**A.** The growth was “active: -91, -60.3, -78.5, -54.1%”.

**Q.** What about the growth (HCC-2998 colon; runs of 1991) of the same molecule?
**A.** The growth was “active: 9.62, 3.54, 1.5, 8.27, -4.68, 9.09, -3.36% and inactive: 23.9, 33.9, 19.1, 19, 28.7, 12.2, 23.1, 29.1, 21.9, 17.3%”.

**Q.** And the growth (HCC-2998 colon; runs of 1992)?
**A.** The growth was “inactive: 14.1, 11.3, 33.6, 26.6 (3×), 14.6 (2×), 14.7 (2×), 21.4, 34.8, 21.8, 68.4, 25.4, 40.5, 19.7, 10.4, 24.5, 13, 15.2, 41.5, 40, 10.7, 13.4, 15.7, 18.6, 20.4, 17, 15.1, 10.8, 47.2, 25.5, 26.5, 15.4, 14.3 (2×), 34.4, 37.7, 14.5, 16.5 (2×), 23.9, 21.5, 22.9, 10.5, 16.3, 14.9, 43.7, 37.1, 18.8, 62.2, 48.4% and active: 4.74, -23.9, -11.9, 4.9, 8.37, -6.63, -23.1, -26.1, -28.1, -4.61, -12.3, 1.02, -27.6, 6.48, 1.5, -12, 0.967, -5.8, 7.46, 6.56, 6.6, -7.31, 6.04, -6.01, 7.29, -16.9, -5.33, -4.54, 7.19, 9.95, 3.38, 7.48, 0.461, 8.96, -3.94, -25.9, 5.26, -29.5, -22.9, -15, -2.48, -30.3, 6.5, 5.36, 0.601, -28.3, 1.1, -4.72, -27.4, -5.67, -11.6, 1.64, 5.29, -18.4, 5.68, 7.36, 8.22, -10.9, 3.45, 7.97, -5.24%”.

**Q.** What about the growth (HCC-2998 colon; runs of 1993) of the same molecule?
**A.** The growth was “inactive: 25.1, 16, 27.4, 26, 15.6, 40.9, 30.7, 10.8, 15.7, 30.6, 29.7, 23.4, 43.8, 22.4, 10.1, 26.2, 19.5, 56.1, 20.2, 12, 28.1, 46.3, 39.9, 104, 25.6, 13.6, 59.9, 23.6, 18.7, 39.5, 30.3, 42.2, 19.8, 36.8, 28.6% and active: 1.67, 1.68, -5.15, -11.9, 5.85, -15.1, 5.28, 6.49, 8.26, 3.89, 6.3, 5.94%”.

**Q.** And the growth (HCC-2998 colon; runs of 1994)?
**A.** Its growth is “inactive: 33.8, 31.7, 52.5, 37.9, 25, 13.9 (2×), 15.5, 55.6, 51.4, 30.1, 20.9, 26.9, 18.6, 14.4, 13.8, 27.8, 45.9, 21.5% and active: 3.17, 5.57, 9.73, 5.27, 9.05, -12.8, -38.1, -13, 4.64, -47.2, -6.72, -5.11, -49.2, -19%”.

**Q.** And the growth (HCC-2998 colon; runs of 1995)?
**A.** The growth was “inactive: 55.3, 23.3, 18.6, 22.8 (2×), 36.1, 30.8, 33, 21.3, 68.3, 19.9, 16.3, 17.7, 33.8, 15.3, 67.7, 23, 35, 20.7, 36.6, 26.2% and active: 8.67, 4.1, -4.39, -26.5, 9.99, -6.47, -5.58, -2.53, -35.7, 3.39, 1.71, 7.41, 7.24, -25.2, -22.7, 8.36, -18%”.

**Q.** And the growth (HCC-2998 colon; runs of 1996)?
**A.** Its growth is “inactive: 32.9, 31.4, 13.5, 13.2, 24.1 (2×), 27 (2×), 27.2, 23.9, 29.8, 23, 30.1, 21.5, 25, 33.2, 47.6, 21.6, 27.8, 17.9, 22.6, 33.3, 20.8, 18.5, 44.5, 26.6, 16.7, 15, 24.9, 24.2, 21.7, 20.6, 14.1, 36.5, 23.2, 25.8, 40.3, 23.7, 10.7, 28.2, 17.3% and active: 8.45, 7.45, -2.36, 4.94, 7.49, -30.3, -51.4, 0.916, -3.36, 3.97%”.

**Q.** What about the growth (HCC-2998 colon; runs of 1997) of the same molecule?
**A.** The growth was “inactive: 14.7 (2×), 18.6, 22.7 (2×), 25.3, 37.9, 102, 12.5, 11.9, 50.4, 42.1, 19.8, 23.9, 17.6, 24.3, 38.3, 33.8, 30.5, 31.9, 26.2, 21.8, 11.2, 29.5, 21.6, 13.5, 11.6, 18.9, 33.9, 39.7, 31.2, 16% and active: -44.8, -25.7, -49, -58.5, 4.14%”.

**Q.** What about the growth (HCC-2998 colon; runs of 1998) of the same molecule?
**A.** Its growth is “inactive: 17.1, 35.3, 33.4, 37.4, 31.1, 45.3, 31.2, 27.9, 10.4, 36.9, 33.5, 24.2, 38.8, 34.5, 16.6, 42, 14.5, 25.8, 11.1% and active: -22.1, 6.85, -22.3, -27.7%”.

**Q.** And the growth (HCC-2998 colon; runs of 1999)?
**A.** Its growth is “inactive: 45.1%, 32% and active: -5.18, -13.8, 0.74, -69.7, -100, -73.3%”.

**Q.** And the growth (HCC-2998 colon; runs of 2000)?
**A.** Its growth is “active: -93.3%, -69.8%, 2.94%”.

**Q.** And the growth (KM12 colon; runs of 1991)?
**A.** The growth was “active: 9.26, 6.77, -61.3, -100, -0.778, -46.1, -50% and inactive: 21.9 (2×), 12.2, 19.3, 20.7, 24.4, 14.1, 14.4, 16.4, 15.3, 18.9, 25.4%”.

**Q.** And the growth (KM12 colon; runs of 1992)?
**A.** Its growth is “active: 9.77, 2.05, -61.8, -30, 2.38, 4.41, -7.6, 4.33, 5.15, -34.8, -63.8, 2.39, -73.1, -27, 7.05, 7.96, 7.53, -16.7, -29.3, -14.5, -48, 4.54, -53, 9.23, -44.4, 6.67, 4.55, 7.48, 8.59, 5.83, 4.13, -26.1, 5.72, 4.9, 4.3, 2.74, 6.97, -37.8, -58.3, 9.82, 0.0319, 7.56, -13.7, 8.06, 9.37, 4.23, 7.18, 3.86, -58.7, -29.9, -29.8, -52.2, 2.76% and inactive: 16.6 (2×), 19.8, 18.4, 24, 29.4, 46.7, 17.4, 16.5, 10.8 (2×), 19.5, 27.4, 19.4, 21.5, 18.2, 20.6, 27.9, 11.3, 17.8, 18.9, 27.6, 19, 96.4, 13.2, 11.4, 15.3, 14.3 (2×), 20.4, 12.9, 19.7, 24.3, 14.8, 21.1, 10.2, 24.1, 11.9, 13.1, 19.6, 16.7, 32.5, 17.3, 23.1, 13.8, 23.6, 11.2, 10.4, 17.5%”.

**Q.** What about the growth (KM12 colon; runs of 1993) of the same molecule?
**A.** The growth was “inactive: 18.4 (2×), 18.9, 19.2 (2×), 12, 17.3 (2×), 21, 21.1, 18.1 (2×), 16.3, 33.1, 19.7, 15.2, 15.9, 14.1, 21.6, 21.9, 16, 22.4, 16.9, 15.3, 17, 10.2, 20.6, 14.5, 21.3, 12.6, 88.3, 11.6 (2×), 104, 16.4, 13.2, 18, 15.5, 25.9, 49.8% and active: 3.27, 3.05, 0.805, 4.87, 8.09, -5.09, 0.484, -7.06, 3.87%”.

**Q.** What about the growth (KM12 colon; runs of 1994) of the same molecule?
**A.** Its growth is “inactive: 20.1, 22, 15.3, 20, 28, 85.9, 24.3, 13.5, 20.9, 51.3, 12.4, 23.6, 12.3, 21.9, 15.9, 14.9, 25.5, 15.2% and active: 7.89, -10.7, 8.7, -2.27, 4.62, -26.1, 5.06, -27.7, -25.3, -1.8, 1.75, -0.351, -29, -4.74, 5.62%”.

**Q.** What about the growth (KM12 colon; runs of 1995) of the same molecule?
**A.** The growth was “inactive: 23, 16.1, 17.7, 17.3, 12.1, 20.6, 25.9, 14.7 (2×), 15.9, 10.1, 10.8, 20.2, 17.8, 20.4% and active: -37.1, -19.8, 3.32, 8.09, 3.09, 6.66, 2.67, -10.7, 1.82, 9.1, 8.86, 7.97, -44, 6.46, -0.623, 1.56, 9.61, 6.65, 2.79, -12, -21.3, 6.83, -29.8, 6.27, 3.97%”.

**Q.** And the growth (KM12 colon; runs of 1996)?
**A.** The growth was “inactive: 20.4, 21.5, 16.6, 26.3, 20.2, 11.8, 13, 12.6, 13.6, 16.9, 11.4, 18.4, 20.3, 17, 17.3, 14.5, 18.1, 12.8, 19.5, 11.1, 12.4, 10, 13.4, 13.1, 15.1, 14.6, 12.5, 24.3, 14, 10.5, 25.8, 22, 35.6, 12.1, 14.3, 30.7% and active: 5.73, -28.7, -2.76, 8.44, 5.58, 2.27, 8.72, 6.3, 6.33, 8.18, 9.14, 7.61, 7.65, 5.33, 2.19, -28.6, -21.3, 0.386, 6.16, -2.91, -1.42, 9.58, -18.3%”.

**Q.** And the growth (KM12 colon; runs of 1997)?
**A.** Its growth is “inactive: 11.6, 33, 33.7, 16.6, 26.9, 20, 14, 10.9, 14.8, 13.8, 33.3, 17.8, 11.5, 20.1, 11.3, 16.4, 21.3, 11.8, 27.1, 14.4, 17.9% and active: 4.63, -16, 7.23, 8.56, -6.31, -39.5, -6.48, -24.3, -6.33, 10, 3.29, -40.7, 0.687, -4.57, 7.73, 7.52, 6.17, 9.75, 7.48, 4.21%”.

**Q.** What about the growth (KM12 colon; runs of 1998) of the same molecule?
**A.** The growth was “inactive: 21.7, 25.5, 10.5, 20.9, 16.1, 30.8, 18.1, 16.2, 12.9, 17.7, 16, 31.9, 52.7, 28% and active: 4.75, 0.976, -13.9, -4.12, -14.3, -3.6, 3.43, 5.31, -49.6, 6.55, 3.02, 1.67%”.

**Q.** And the growth (KM12 colon; runs of 1999)?
**A.** Its growth is “inactive: 41.1, 23.2, 25.4, 16.5% and active: -8.46, -6.88, 9.17, -78.7, 3.81, -36.5, 0.784, -19.4, -100, -56%”.

**Q.** What about the growth (KM12 colon; runs of 2000) of the same molecule?
**A.** The growth was “active: 6.51, -91.2, -39.1, 1.96%”.
